Laboratory results from PubChem BioAssay AID651820 (National Center for Advancing Translational Sciences (NCATS), 2012).
Screen size: about 340,000 compounds; about 12,000 (3.5%) were called active. This list was built around the results that the source calls inconclusive (neither active nor inactive); the mix of calls is not that of the screen. Calls follow the shape of the dose curve; as a rule, active = well fitted inhibition curve with a large enough effect; inconclusive = small, poorly fitted or top-dose-only effect, or another doubt; inactive = no such curve, though single readings can be large or run the other way. Potencies of inconclusive entries are left out as doubtful fits.

Assay: qHTS Assay for Inhibitors of Hepatitis C Virus (HCV)
Details: Huh7.5.1 HCVcc-Cre (HCVcc is cell-culture hepatitis C virus) infection, luciferase reporter, 44 h; series mostly up to 41.8 µM
In short: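 Infectious HCVcc-Cre (~0.5 moi) was added to cells just after compound, with cells seeded 4 h earlier at 1,000 per well. Luciferase activity after 44 h culture reported infection; substrate was incubated 15 min at room temperature before reading.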
Potency is read from the fitted curve at half-maximal effect; tags tell the direction and shape of the fitted curve.

| SMILES | Potency |
| --- | --- |
| COc1ccc(C2CC(=O)c3cnc(NC(=O)c4cccc(OC)c4)nc3C2)cc1 (configuration not stated) | inconclusive [inhibitor, single point] |
| COc1ccccc1CCC(=O)NC1CCCN(c2ccc(C(F)(F)F)cn2)C1 (configuration not stated) | inconclusive [inhibitor, partial curve] |
| CCN(CC)S(=O)(=O)c1cccc(NC(=O)CN(C)Cc2cccc(OC)c2)c1 | inconclusive [inhibitor, single point] |
| CCOC(=O)c1ccc(N2C=C(C(=O)OC)C(c3cccc(O)c3)C(C(=O)OC)=C2)cc1 | inactive |
| CCOC(=O)C1(CCOc2ccccc2)CCN(Cc2cccc(OCCO)c2)CC1 | inactive |
| Cc1cccc(OCc2nnc(SCC(=O)N(C(C)C)C(C)C)n2Cc2ccco2)c1C | inactive |
| O=C(CN1CCOCC1)Nc1cccc(C(=O)Nc2cccc(C(F)(F)F)c2)c1 | inactive |
| O=C(Nc1ccc2ccccc2c1)c1nn(C23CC4CC(CC(C4)C2)C3)cc1Br | inactive |
| N#Cc1ccc(OC(=O)C2CCN(C3=NS(=O)(=O)c4ccccc43)CC2)cc1 | inactive |
| COc1ccc(C(=O)Nc2cc(C)nn2-c2cccc(F)c2)cc1OC | inactive |
| CCN1CCN(c2ccc(N3CCN(S(=O)(=O)c4ccc(C)c([N+](=O)[O-])c4)CC3)nn2)CC1 | inconclusive [inhibitor, single point] |
| Cc1cc(NC(=O)c2cc(C(C)(C)C)oc2C)no1 | inconclusive [inhibitor, partial curve] |
| CC1CC(C)CN(C(=O)COC(=O)c2ccc(Cl)nc2)C1 (configuration not stated) | inactive |
| NC[C@H](Cc1ccccc1)NCCCCC1CCCCC1 | inconclusive [inhibitor, partial curve] |
| O=C(O)CCNc1nc(C(F)(F)F)nc2ccccc12 | inconclusive [inhibitor, single point] |
| O=[N+]([O-])c1cc(-c2ccccc2)cc([N+](=O)[O-])c1O | inactive |
| O=C1C=CC2(C=C1)O[C@H](Cc1ccccc1)[C@@H](Cc1ccccc1)O2 | active: 2.51 µM |
| COc1ccc(C2CC(c3ccccc3)Nc3nc(NC(=O)c4cccs4)nn32)cc1 (configuration not stated) | inconclusive [inhibitor, partial curve, poor fit] |
| Cc1c(/C=N/NC(=O)c2cccnc2)c2ccccc2n1Cc1ccccc1 | active: 11.2 µM |
| Cc1cc(Cl)c2oc(C(=O)N(C)Cc3ccon3)c(C)c2c1 | inconclusive [inhibitor, single point] |
| O=C(CNC(=O)c1ccccc1F)NCc1ccncc1 | inactive |
| CCOc1ccccc1NC(=O)CN(C)S(=O)(=O)c1ccc(OC)c(C)c1 | inconclusive [inhibitor, full curve, poor fit] |
| O=[N+]([O-])c1ccc2oc(C(O)c3cccc(Cl)c3)cc2c1 (configuration not stated) | inactive |
| CCn1cc(CNC(=O)CSc2nc(-c3ccc(OC)c(OC)c3)cc(C(F)(F)F)n2)c(C)n1 | inconclusive [inhibitor, single point] |
| O=C(c1noc2c1CCCC2)N1CCCCC1 | inconclusive [inhibitor, single point] |
| CCOc1ccc(C(=O)Nc2cccc(SC)c2)cc1 | inconclusive [inhibitor, single point] |

| SMILES | Potency |
| --- | --- |
| COc1ccc(-c2sc3cc4c(cc3c2C#CC2(O)CCCCC2)OCO4)cc1 | active: 1.58 µM |
| Nc1c(C(=O)Nc2ccccc2)sc2nc3c(c(-c4ccco4)c12)CCCC3 | inconclusive [inhibitor, partial curve] |
| CC(=NCC1CCCO1)c1c(O)n(Cc2ccccc2)c(=O)[nH]c1=O (configuration not stated) | inactive |
| COc1ccc(NC(=O)C2CCCN(S(=O)(=O)c3cccc4cccnc34)C2)cc1OC (configuration not stated) | inconclusive [inhibitor, partial curve] |
| Cc1ccc(Nc2nc(N)c3ccccc3n2)cc1Cl | inactive |
| CCN(CC)c1ccc(C(=O)NNC(=O)CCl)cc1 | inconclusive [inhibitor, partial curve] |
| CC(=O)Oc1ccc(-c2csc(Nc3cccnc3)n2)cc1 | inconclusive [inhibitor, partial curve] |
| COc1ccc(NC(=O)c2ccccc2NC(=O)CSc2ccc(C)cc2)cc1 | inconclusive [inhibitor, partial curve] |
| CCc1cc(C(=O)NNC(=S)Nc2cccc(C)c2)cs1 | inactive |
| Fc1ccc(Cn2cccc2C2=NC(c3ccccc3)CO2)cc1 (configuration not stated) | inactive |
| Cc1ccc(S(=O)(=O)N2CCCCC2)cc1C(=O)OC(C)C(=O)NCC1CCCCC1 (configuration not stated) | inconclusive [inhibitor, single point] |
| O=C(CCC(=O)c1ccc(F)cc1)Nc1cccc(S(=O)(=O)Nc2cccc(Cl)c2)c1 | inconclusive [inhibitor, single point] |
| Cc1cc[n+](CC(=O)c2ccc(NC(=O)c3ccccc3)cc2)c2ccccc12 | inactive |
| Cc1ccc(CNC(=O)c2ccc(N3CCc4ccccc43)c([N+](=O)[O-])c2)cc1 | active: 6.31 µM |
| OC1CCCN(c2c3c(nc4cc(-c5cccc(Cl)c5)nn24)CCC3)C1 (configuration not stated) | inconclusive [inhibitor, full curve] |
| COc1ccc(NC(=O)Cn2nnc(-c3ccccc3NC(=O)c3ccco3)n2)cc1 | inconclusive [inhibitor, partial curve] |
| CN(c1ccc(C(=O)NCCSC(C)(C)C)cc1)S(C)(=O)=O | inconclusive [inhibitor, single point] |
| COc1ccc(NC(=O)c2ccccc2)c([N+](=O)[O-])c1 | inconclusive [inhibitor, single point] |
| O=S(=O)(NN1CCOCC1)c1cc(Cl)cc(Cl)c1O | inactive |
| O=C(NCc1cccc(Cl)c1)c1ccc2ccccc2n1 | inconclusive [inhibitor, partial curve] |
| COc1cc(/C=N/Nc2nc(=O)[nH]nc2C)ccc1O | inactive |
| COC(=O)c1sc(NC(=O)c2ccc(OC)cc2OC)nc1C | inactive |
| CNC(=S)N1N=C(c2ccc(Br)cc2)CC1c1ccc(OC)cc1 (configuration not stated) | active: 10 µM |
| CCn1c(-c2ccc(F)cc2)cnc1SCC(=O)N1CCc2ccccc21 | inactive |
| CCc1ccc(NC(=S)N(CCOC)C2CCN(C(C)=O)CC2)cc1 | inactive |
| Cc1cnn(-c2cc(N/N=C/c3cccc(F)c3)ncn2)c1 | inactive |

| SMILES | Potency |
| --- | --- |
| CCn1cc(CNC(=O)CCc2ccc(OC)cc2)cn1 | inactive |
| CCCN1C(=O)CC(c2ccco2)Sc2ccccc21 (configuration not stated) | inactive |
| NC(=O)c1c(NC(=O)CN2C(=O)CCC2=O)sc2c1CCCCC2 | inactive |
| CCCCC(=O)N1CCN(c2nc3ccc(Cl)cc3s2)CC1 | active: 7.94 µM |
| O=C(C1=C[C@@H](C2CCCCC2)C[C@@H](OCc2ccc(CO)cc2)O1)N1CCN(Cc2ccc3c(c2)OCO3)CC1 | inconclusive [inhibitor, single point] |
| O=C(c1cc(COc2ccc(F)cc2Cl)on1)N1CCCC(c2ccccc2)C1 (configuration not stated) | inconclusive [inhibitor, single point] |
| COc1ccc(CN2CCCC(C(=O)Nc3cccc(-n4cccn4)c3)C2)cc1 (configuration not stated) | inconclusive [inhibitor, single point] |
| COC(=O)CN1C(=O)COc2ccc(S(=O)(=O)N3CCCCCC3)cc21 | inactive |
| CN(CC(=O)Nc1cccc(S(=O)(=O)NC2=NCCC2)c1)Cc1cccc(F)c1 | inactive |
| COC(=O)c1ccsc1NC(=O)c1ccco1 | inconclusive [inhibitor, single point] |
| Cc1ccc(COC(=O)c2nn(-c3ccccc3)nc2N)cc1 | inactive |
| O=C(CSc1nnc2ccc(-c3ccncc3)nn12)Nc1ccc(F)cc1 | inactive |
| COc1ccc(Br)cc1C(C[N+](=O)[O-])c1c(N)n(C)c(=O)n(C)c1=O (configuration not stated) | active: 3.98 µM |
| COc1cc(NC(=O)COC(=O)C=C(C)C)c(C)cc1[N+](=O)[O-] | inconclusive [inhibitor, single point] |
| COc1c(C)cc(C(=O)C2CCCN(C(=O)c3cccc(-n4cccn4)c3)C2)cc1C (configuration not stated) | inconclusive [inhibitor, single point] |
| COc1ccc(/C(C)=N\Nc2nc(-c3ccccc3)cc(=O)[nH]2)cc1 | inconclusive [inhibitor, partial curve, poor fit] |
| CCSc1ncc(/C=N/Nc2ccc(F)cc2)n1C | inconclusive [inhibitor, single point] |
| CCOC(=O)c1ccccc1NC(=O)C1=COCCO1 | inconclusive [inhibitor, full curve, poor fit] |
| Cc1cc(Cc2cc(C)c(O)c(CO)c2)cc(CO)c1O | inactive |
| Oc1cccc2ccc(/C=C/c3cccs3)nc12 | inconclusive [inhibitor, partial curve] |
| O=S(=O)(c1ccc(F)cc1)N1CCN(C(=S)NCC2CCCO2)CC1 (configuration not stated) | inconclusive [inhibitor, single point] |
| S=C(CN1CCCC1=S)NCCc1ccccc1 | inactive |
| COc1ccc2cc3cc(C(=O)N4CCN(c5ccccc5)CC4)oc3nc2c1 | inactive |
| CCOc1ccccc1-c1cc(C(=O)Nc2ccc(C(=O)O)cc2)c2ccccc2n1 | inactive |
| COc1ccc(C2=NN(Cc3c(F)cccc3Cl)C(=O)CC2)cc1 | inconclusive [inhibitor, single point] |
